Laboratory results as given in article PMC4336329 (PLoS ONE, 2015).
About 2,200 (0.71%) of roughly 310,000 compounds showed an effect of 50% or more. The effect is printed as a negative number. The list shows a part of the results.

The molecules below were run against human ether-à-go-go-related gene (hERG) potassium channel (human, UniProt Q12809) (assay: primary screen, population patch clamp on CHO cells stably expressing hERG).
Chain of human ether-à-go-go-related gene (hERG) potassium channel (Q12809 whole entry, looked up): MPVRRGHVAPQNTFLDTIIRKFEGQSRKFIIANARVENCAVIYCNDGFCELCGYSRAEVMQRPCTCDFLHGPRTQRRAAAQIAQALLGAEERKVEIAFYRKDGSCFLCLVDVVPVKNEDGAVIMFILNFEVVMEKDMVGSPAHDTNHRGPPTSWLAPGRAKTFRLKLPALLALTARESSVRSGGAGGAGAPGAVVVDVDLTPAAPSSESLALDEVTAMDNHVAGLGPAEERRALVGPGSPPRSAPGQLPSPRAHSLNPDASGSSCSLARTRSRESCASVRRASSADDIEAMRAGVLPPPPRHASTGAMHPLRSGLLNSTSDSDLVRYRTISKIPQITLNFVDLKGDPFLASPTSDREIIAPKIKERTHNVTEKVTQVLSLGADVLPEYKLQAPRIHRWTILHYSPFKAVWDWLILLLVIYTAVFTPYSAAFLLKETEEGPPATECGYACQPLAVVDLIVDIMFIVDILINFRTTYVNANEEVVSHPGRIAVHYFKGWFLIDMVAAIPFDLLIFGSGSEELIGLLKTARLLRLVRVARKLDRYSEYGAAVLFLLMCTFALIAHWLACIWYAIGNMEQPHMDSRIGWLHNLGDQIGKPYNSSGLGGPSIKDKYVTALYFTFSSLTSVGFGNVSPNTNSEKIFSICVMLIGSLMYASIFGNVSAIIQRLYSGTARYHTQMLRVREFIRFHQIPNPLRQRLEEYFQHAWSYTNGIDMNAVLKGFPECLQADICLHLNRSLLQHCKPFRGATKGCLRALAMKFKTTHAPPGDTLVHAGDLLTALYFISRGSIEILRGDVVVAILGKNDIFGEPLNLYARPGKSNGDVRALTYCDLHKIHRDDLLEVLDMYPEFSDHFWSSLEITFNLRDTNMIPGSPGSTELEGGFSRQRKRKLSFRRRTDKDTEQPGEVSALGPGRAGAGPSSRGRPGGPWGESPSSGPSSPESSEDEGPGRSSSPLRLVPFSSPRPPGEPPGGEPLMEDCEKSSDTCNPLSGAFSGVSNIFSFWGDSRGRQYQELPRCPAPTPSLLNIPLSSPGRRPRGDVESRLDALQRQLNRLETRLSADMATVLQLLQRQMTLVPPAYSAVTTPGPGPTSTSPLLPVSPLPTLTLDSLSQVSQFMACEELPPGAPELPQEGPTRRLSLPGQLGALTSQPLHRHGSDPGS

First: O=C(Nc1cc(Cl)ncn1)c1ccccc1
Second: COc1ccc(NC(=O)COc2ccccc2)cc1Cl
The “hERG current change (%, negative = inhibition) at 1uM” value of the first is lower: 7.76% for the first, 13.6% for the second.

Going from `CCn1c(=O)c(C(=O)Nc2ncccc2O)c(O)c2ccccc21` to `Cc1onc(-c2ccccc2Cl)c1C(=O)Nc1cccnc1`, the “hERG current change (%, negative = inhibition) at 1uM” value falls from 21% to 6.71%.

Going from `Cc1nn(C)c(C)c1CCC(=O)N1CCCC(Nc2ccc(C(C)C)cc2)C1` (centres unmarked) to `Cn1cc([N+](=O)[O-])c(C(=O)Nc2ccc(C3CCCCC3)cc2)n1`, the “hERG current change (%, negative = inhibition) at 1uM” value falls from 14% to 9.65%.

First: CC(OC(=O)c1nsc(Cl)c1Cl)C(=O)NCc1cccs1 (centres unmarked)
Second: CC(OC(=O)CN1C(=O)NC2(CCCC2)C1=O)C(=O)Nc1cccc(Cl)c1 (centres unmarked)
The “hERG current change (%, negative = inhibition) at 1uM” value of the first is higher: 13% for the first, -0.725% for the second.

First: O=C(CC1SC(=O)N(Cc2ccccc2Cl)C1=O)Nc1nccs1 (centres unmarked)
Second: Cc1ccc(CS(=O)(=O)CCC(=O)NCc2ccccc2Cl)cc1
The “hERG current change (%, negative = inhibition) at 1uM” value of the first is lower: 6.06% for the first, 10.3% for the second.

First: CCOc1cc(-c2nnc(-c3ccco3)o2)cc(OCC)c1OCC
Second: CCOc1ccccc1NC(=O)CSc1nnc(-c2cnccn2)n1C
The “hERG current change (%, negative = inhibition) at 1uM” value of the first is higher: 8.69% for the first, -0.161% for the second.

Going from `Cc1ccc(OCCn2cc(/C=N/NC(=O)c3ccncc3)c3ccccc32)cc1` to `Cc1cccc(/C=N/NC(=O)c2cc(-c3cccnc3)nc3ccccc23)c1`, the “hERG current change (%, negative = inhibition) at 1uM” value rises from -0.0993% to 5.24%.

Going from `Cc1ccc(/C=C/C(=O)O)cc1S(=O)(=O)N1CCCCC1` to `COC(=O)CNC(=O)C1CCN(S(=O)(=O)c2cccc3nsnc23)CC1`, the “hERG current change (%, negative = inhibition) at 1uM” value rises from 7.44% to 17.2%.

First: COc1cc(OC)c(OC)cc1CNCc1ccc2c(c1)OCO2
Second: COc1cc2[nH]c(=O)n(Cc3ccc(C(=O)NCC4CCCO4)cc3)c(=O)c2cc1OC (centres unmarked)
The “hERG current change (%, negative = inhibition) at 1uM” value of the first is higher: 12.3% for the first, 5.93% for the second.

Going from `C=C(C)c1ccccc1NC(=O)CCN1C(=O)c2ccccc2S1(=O)=O` to `COc1ccccc1N(CC(=O)Nc1ccccc1C(=O)NCC(C)C)S(C)(=O)=O`, the “hERG current change (%, negative = inhibition) at 1uM” value falls from 16.5% to -8.6%.

Going from `COc1cccc2cc(CC(=O)c3ccccc3)c(=O)oc12` to `COc1ccc(NC(=O)CN2C(=O)C(C)Oc3ccccc32)c(OC)c1` (centres unmarked), the “hERG current change (%, negative = inhibition) at 1uM” value falls from 11.2% to 7.11%.

Going from `COc1cc(C2C(C#N)=C(N)Oc3cc(C)oc(=O)c32)cc2c1OCO2` (centres unmarked) to `C=CCOC(=O)C(C#N)c1nc2ccccc2nc1N1CCN(Cc2ccc3c(c2)OCO3)CC1` (centres unmarked), the “hERG current change (%, negative = inhibition) at 1uM” value falls from 6.57% to 3.58%.

Compared with `CCN(CC)c1ccc(NC(=O)CN2CCN(CC(=O)Nc3ccccc3OC)CC2)cc1`, `COc1cccc(N2CCN(CC(=O)Nc3nc(C)c(C(=O)N(C)C)s3)CC2)c1` is higher in “hERG current change (%, negative = inhibition) at 1uM” value: -0.407% for the first, 15% for the second.

Going from `CCCCCOc1ccc(CN2CCOCC2)cc1Cl.Cl` to `CCOc1ccc(CNC(=S)Nc2ccccc2)cc1Cl`, the “hERG current change (%, negative = inhibition) at 1uM” value rises from 7.35% to 14.7%.

Going from `CCN1CCN(S(=O)(=O)c2ccc(C(C)(C)C)cc2)CC1` to `O=C(C1CN(S(=O)(=O)c2ccccc2)CCN1S(=O)(=O)c1ccccc1)N1CCCCCC1` (centres unmarked), the “hERG current change (%, negative = inhibition) at 1uM” value falls from 13% to 8.26%.

Going from `CC1=C/C(=C\c2ccc(Br)o2)C(=O)O1` to `Cc1c(C(=O)NNc2c(Cl)cccc2Cl)n(C)oc1=O`, the “hERG current change (%, negative = inhibition) at 1uM” value rises from 12.5% to 12.6%.

First: O=[N+]([O-])c1cccc(Oc2cnccn2)c1
Second: Cc1ccc2nc(-c3ccncc3)[nH]c2c1
The “hERG current change (%, negative = inhibition) at 1uM” value of the first is lower: 14.5% for the first, 16.2% for the second.

First: O=C(CN1C(=O)COc2ccccc21)Nc1ccc(F)cc1
Second: CC(=O)NC(CC(=O)OCC(=O)Nc1ccc2c(c1)OCO2)c1ccccc1 (centres unmarked)
The “hERG current change (%, negative = inhibition) at 1uM” value of the first is lower: 11.2% for the first, 15.2% for the second.

Going from `O=C(C1CCCO1)N(c1ccc(F)cc1)C1C=CS(=O)(=O)C1` (centres unmarked) to `C[C@H](NC(=O)NCc1ccc(F)cc1)C(=O)O`, the “hERG current change (%, negative = inhibition) at 1uM” value falls from 15.2% to 6.79%.

Compared with `O=C1CSc2ccc(S(=O)(=O)CCC(=O)NC3CCCCC3)cc2N1`, `COc1cccc(C(=O)Cn2c(N3CCCCC3)nc3c2c(=O)n(C)c(=O)n3C)c1` is lower in “hERG current change (%, negative = inhibition) at 1uM” value: 15.7% for the first, 12.2% for the second.

Going from `Cc1ccc2nc(SC(C)C(=O)NCc3ccco3)[nH]c2c1` (centres unmarked) to `Cc1nccc2c1[nH]c1ccc(Br)cc12`, the “hERG current change (%, negative = inhibition) at 1uM” value rises from 5.91% to 10.4%.

First: Nn1c(Cc2cccc3ccccc23)nnc1SC1CCOC1=O (centres unmarked)
Second: COCCn1nnnc1C(c1ccc(OC)c(OC)c1)N1CCc2ccccc21 (centres unmarked)
The “hERG current change (%, negative = inhibition) at 1uM” value of the first is higher: 13.3% for the first, 1.88% for the second.

Compared with `O=C(O)CSc1ncnc2sc3c(c12)CCCC3`, `C/C(=N/NC(=O)CNC(=O)c1ccc2c(c1)OCO2)c1ccc2c(c1)CCCC2` is higher in “hERG current change (%, negative = inhibition) at 1uM” value: 3.75% for the first, 7.14% for the second.

Going from `CC(=O)NC(C)c1nc2ccccc2n1CC(=O)N1C(C)CCCC1C` (centres unmarked) to `CC12CCC(C(=O)N(NC(=O)c3ccccc3O)C1=O)C2(C)C` (centres unmarked), the “hERG current change (%, negative = inhibition) at 1uM” value falls from 12.1% to 11.1%.

Going from `CC(=O)Nc1nc(=S)ss1` to `CCCNC(=O)CN1CCN(c2cc3ccccc3c(Cl)n2)CC1`, the “hERG current change (%, negative = inhibition) at 1uM” value falls from 8.23% to -4.09%.

Going from `O=C(Nc1cc(SCC(O)CO)cc([N+](=O)[O-])c1)c1ccc(-n2cnnn2)cc1` (centres unmarked) to `CC(=O)Nc1ccc(SC[C@H](Cc2ccccc2)N2CCN(CCc3ccccc3)CCC2=O)cc1`, the “hERG current change (%, negative = inhibition) at 1uM” value falls from 17.4% to 4.37%.

First: O=C(CC(c1ccccc1)c1ccccc1O)NCc1ccccc1Cl (centres unmarked)
Second: COCCNCC(O)CON=C1c2ccccc2-c2ccccc21 (centres unmarked)
The “hERG current change (%, negative = inhibition) at 1uM” value of the first is higher: 9% for the first, 4.17% for the second.

Compared with `CCCCN1C(=O)/C(=C(/C#N)C(N)=O)c2ccccc21`, `COc1ccc(N=C2S/C(=C\c3cccs3)C(=O)N2CC(C)C)cc1` is lower in “hERG current change (%, negative = inhibition) at 1uM” value: 31.5% for the first, -1.97% for the second.

Going from `O=C(N/N=C\c1ccc(OCC(=O)N2CCCC2)cc1)C(=O)Nc1ccccc1F` to `N#Cc1nc(COc2ccc(F)cc2)oc1N1CCN(Cc2ccccc2)CC1`, the “hERG current change (%, negative = inhibition) at 1uM” value falls from -10.6% to -51%.

`COc1ccc(NC(=S)Nc2ccc(OC(F)F)cc2)cn1` was tested, and the “hERG current change (%, negative = inhibition) at 1uM” value was -0.51%.
